Experimental data taken from the supplement of paper PMC6609913.
Where a name gives a salt, the structure may show the parent alone. ± gives the standard deviation of the averaged measurements. In all, about 1,300 compounds were measured (“normalised cell viability”: median about 1, lowest 2% from about 0.15 on). Some of the results follow.

System: V-C8 + BRCA2 (BRCA2-proficient hamster cells)
Test: normalised cell viability (fraction of plate median); higher = more viable cells (less toxic)
Conditions: 5 µM
Method in brief: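 In two screens, library drugs at 5 μM were given for 3 days (screen 1) or 6 days (screen 2) to hamster V-C8 cells without BRCA2 and V-C8 cells with BRCA2 restored, seeded 24 h earlier in 96-well plates. A resazurin assay gave the cell viability readout, expressed as modified robust per cent of sample against the plate median, with triplicate wells averaged.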

Compound	normalised cell viability (treatment time: 3 days)	normalised cell viability (treatment time: 6 days)
O=C1C(O)=C([C@H]2CC[C@H](c3ccc(Cl)cc3)CC2)C(=O)c2ccccc21 [Atovaquone]	0.958 ± 0.012	0.922 ± 0.04
Cc1ccccc1C(OCCN(C)C)c1ccccc1 (stereo not drawn) [Orphenadrine hydrochloride]	0.962 ± 0.13	0.967 ± 0.025
O=C1CCc2ccc(OCCCCN3CCN(c4cccc(Cl)c4Cl)CC3)cc2N1 [Aripiprazole]	0.425 ± 0.082	0.347 ± 0.042
CN(C)CCOC(c1ccc(Cl)cc1)c1ccccn1 (stereo not drawn) [Carbinoxamine maleate salt]	0.989 ± 0.066	0.896 ± 0.035
NC(=O)NC1NC(=O)NC1=O (stereo not drawn) [Allantoin]	0.922 ± 0.11	1.01 ± 0.064
COC(=O)C1=C(C)NC(C)=C(C(=O)OCC(C)C)C1c1ccccc1[N+](=O)[O-] (stereo not drawn) [Nisoldipine]	0.903 ± 0.046	0.692 ± 0.071
COC(=O)C1=C(C)NC(C)=C(C(=O)OCCN(C)Cc2ccccc2)C1c1cccc([N+](=O)[O-])c1 (stereo not drawn) [Nicardipine hydrochloride]	0.871 ± 0.041	0.947 ± 0.034
CN1CCN(c2c(F)cc3c(=O)c(C(=O)O)cn4c3c2SCC4)CC1 [Rufloxacin]	0.947 ± 0.016	0.987 ± 0.075
Cc1cnc(C(=O)NCCc2ccc(S(=O)(=O)NC(=O)NC3CCCCC3)cc2)cn1 [Glipizide]	1.09 ± 0.029	1.11 ± 0.082
O=C1[C@H](CC[C@H](O)c2ccc(F)cc2)[C@@H](c2ccc(O)cc2)N1c1ccc(F)cc1 [Ezetimibe]	1.03 ± 0.04	1.08 ± 0.054
CCC1NC(=O)c2cc(S(N)(=O)=O)c(Cl)cc2N1 (stereo not drawn) [Quinethazone]	0.989 ± 0.058	0.989 ± 0.073
COc1ccccc1N1CCN(CCCCNC(=O)c2ccc3ccccc3c2)CC1	0.982 ± 0.044	1.04 ± 0.088
CC(O)(P(=O)(O)O)P(=O)(O)O [Etidronic acid, disodium salt]	0.987 ± 0.016	1.09 ± 0.03
CCN(CC)CCOc1ccc(C(=C(Cl)c2ccccc2)c2ccccc2)cc1 [Clomiphene citrate (Z,E)]	0.124 ± 0.0093	0.128 ± 0.013
CCCCNc1ccc(C(=O)OCCN(C)C)cc1	1.15 ± 0.08	1.11 ± 0.036
CN(C)[C@@H]1C(O)=C(C(=O)NCNCCCC[C@H](N)C(=O)O)C(=O)[C@@]2(O)C(O)=C3C(=O)c4c(O)cccc4[C@@](C)(O)[C@H]3C[C@@H]12 [Lymecycline]	0.95 ± 0.014	0.799 ± 0.18
CN1CCOC(c2ccccc2)c2ccccc2C1 (stereo not drawn) [Nefopam hydrochloride]	0.99 ± 0.035	0.983 ± 0.017
CN1CCC(=C2c3ccccc3CCc3sccc32)CC1 [Pizotifen malate]	1.07 ± 0.058	1 ± 0.043
CCC(=O)OCC(=O)[C@@]1(OC(=O)CC)[C@@H](C)C[C@H]2[C@@H]3CCC4=CC(=O)C=C[C@]4(C)[C@@]3(Cl)[C@@H](O)C[C@@]21C [Beclomethasone dipropionate]	1 ± 0.081	0.987 ± 0.048
CCN(CC)Cc1cc(Nc2ccnc3cc(Cl)ccc23)ccc1O [Amodiaquin dihydrochloride dihydrate]	0.851 ± 0.042	0.908 ± 0.11
COc1ccccc1N1CCN(CCCNc2cc(=O)n(C)c(=O)n2C)CC1 [Urapidil hydrochloride]	0.969 ± 0.073	1.05 ± 0.061
Cn1c(=O)c2c(ncn2CCO)n(C)c1=O [Etofylline]	1.003 ± 0.01	0.989 ± 0.025
CC(C)NCC(O)c1cc(O)cc(O)c1 (stereo not drawn) [Metaproterenol sulfate, orciprenaline sulfate]	1.03 ± 0.023	1.04 ± 0.02

Compound	normalised cell viability (treatment time: 3 days)	normalised cell viability (treatment time: 6 days)
C#CCN(C)CCCOc1ccc(Cl)cc1Cl [Clorgyline hydrochloride]	1.18 ± 0.12	0.987 ± 0.011
O=C(O)CN(CCN(CC(=O)O)CC(=O)O)CCN(CC(=O)O)CC(=O)O [Pentetic acid]	1.01 ± 0.032	0.995 ± 0.047
O=C(O)CCNC(=O)c1ccc(/N=N/c2ccc(O)c(C(=O)O)c2)cc1 [Balsalazide Sodium]	0.992 ± 0.02	0.968 ± 0.077
C[n+]1ccccc1/C=N/O [Pralidoxime chloride]	0.99 ± 0.036	0.9475 ± 0.0081
CCC(C)n1ncn(-c2ccc(N3CCN(c4ccc(OCC5COC(Cn6cncn6)(c6ccc(Cl)cc6Cl)O5)cc4)CC3)cc2)c1=O (stereo not drawn) [Itraconazole]	0.909 ± 0.013	0.875 ± 0.14
Cc1cccc(Nc2ccccc2C(=O)O)c1C [Mefenamic acid]	1.07 ± 0.068	0.995 ± 0.047
O=C1OC(CN2CCOCC2)CN1/N=C/c1ccc([N+](=O)[O-])o1 (stereo not drawn) [Furaltadone hydrochloride]	0.862 ± 0.038	0.923 ± 0.055
CNCCCN1c2ccccc2CCc2ccccc21 [Desipramine hydrochloride]	1 ± 0.022	0.89 ± 0.024
O=C1CCC(N2C(=O)c3ccccc3C2=O)C(=O)N1 (stereo not drawn) [Thalidomide]	1 ± 0.034	1.01 ± 0.053
O=C1NCCN1CCN1CCC(c2cn(-c3ccc(F)cc3)c3ccc(Cl)cc23)CC1 [Sertindole]	0.914 ± 0.067	0.893 ± 0.088
CCN(CC)CCNC(=O)COc1ccc(OC)cc1 [Mefexamide hydrochloride]	1.02 ± 0.012	1.01 ± 0.024
CC(=O)OCC1=C(C(=O)O)N2C(=O)[C@@H](NC(=O)Cc3cccs3)[C@H]2SC1 [Cephalothin sodium salt]	0.868 ± 0.026	0.96 ± 0.14
Clc1ccc(C(Cn2ccnc2)OCc2csc3c(Cl)cccc23)c(Cl)c1 (stereo not drawn) [Sertaconazole nitrate]	0.949 ± 0.071	0.925 ± 0.12
CCCCc1nc(Cl)c(CO)n1Cc1ccc(-c2ccccc2-c2nnn[nH]2)cc1 [Losartan]	0.991 ± 0.025	0.966 ± 0.047
CC1(C)S[C@@H]2[C@H](NC(=O)Cc3ccccc3)C(=O)N2[C@H]1C(=O)O [Benzylpenicillin sodium]	1.01 ± 0.018	1.01 ± 0.084
CC1(C)S[C@@H]2[C@H](NC(=O)Cc3ccccc3)C(=O)N2[C@H]1C(=O)O [Benzathine benzylpenicillin]	1.05 ± 0.09	0.966 ± 0.019
O=C1c2cccc3c2[C@H](CCC3)CN1[C@@H]1CN2CCC1CC2 [Palonosetron hydrochloride]	1.05 ± 0.035	0.924 ± 0.054
NCC[C@H](O)C(=O)N[C@@H]1C[C@H](N)[C@@H](O[C@H]2O[C@H](CN)[C@@H](O)[C@H](O)[C@H]2O)[C@H](O)[C@H]1O[C@H]1O[C@H](CO)[C@@H](O)[C@H](N)[C@H]1O [Amikacin hydrate]	0.584 ± 0.023	0.699 ± 0.089
CN(C/C=C/C#CC(C)(C)C)Cc1cccc2ccccc12 [Terbinafine]	0.206 ± 0.0049	0.339 ± 0.031
O=c1[nH]cnc2c1ncn2[C@H]1CC[C@@H](CO)O1 [Didanosine]	0.871 ± 0.031	0.945 ± 0.093
Nc1nc(O)c2ncn(CCC(CO)CO)c2n1 [Penciclovir]	1.01 ± 0.038	0.906 ± 0.14
Fc1ccc([C@@H]2CCNC[C@H]2COc2ccc3c(c2)OCO3)cc1 [Paroxetine Hydrochloride]	0.832 ± 0.017	0.876 ± 0.015
NC(CO)C(=O)NNCc1ccc(O)c(O)c1O (stereo not drawn) [Benserazide hydrochloride]	1.08 ± 0.088	1.05 ± 0.022

Compound	normalised cell viability (treatment time: 3 days)	normalised cell viability (treatment time: 6 days)
CN(C)CCCN1c2ccccc2CCc2ccccc21 [Imipramine hydrochloride]	0.928 ± 0.024	0.96 ± 0.067
NCCC[C@H](N)CC(=O)N[C@H]1CNC(=O)[C@H]([C@H]2C[C@H](O)NC(N)=N2)NC(=O)/C(=C/NC(N)=O)NC(=O)[C@H](CO)NC(=O)[C@H](CO)NC1=O [Viomycin sulfate]	0.941 ± 0.15	0.936 ± 0.076
O=C(Oc1cccc2cccnc12)c1ccccc1 [Benzoxiquine]	0.791 ± 0.052	0.738 ± 0.056
CN1CCC(OC(c2ccccc2)c2ccccc2)CC1 [Diphenylpyraline hydrochloride]	0.976 ± 0.11	1.04 ± 0.037
Clc1ccc(Nc2nnc(Cc3ccncc3)c3ccccc23)cc1 [Vatalanib]	0.791 ± 0.051	0.905 ± 0.062
C[C@H](CCC(=O)O)[C@H]1CC[C@H]2[C@@H]3CC[C@@H]4C[C@H](O)CC[C@]4(C)[C@H]3CC[C@]12C [Lithocholic acid]	0.888 ± 0.041	0.885 ± 0.065
CC(=O)SCC(Cc1ccccc1)C(=O)NCC(=O)OCc1ccccc1 (stereo not drawn) [Racecadotril]	0.969 ± 0.037	0.977 ± 0.067
COC(=O)C1=C(C)NC(C)=C(C(=O)OC(C)C)C1c1cccc2nonc12 (stereo not drawn) [Isradipine]	1.02 ± 0.032	0.9264 ± 0.0066
O=C(O)CCCC[C@@H]1SC[C@@H]2NC(=O)N[C@@H]21 [Biotin]	1.11 ± 0.048	1.01 ± 0.031
C[C@@]1(O)CCOC(=O)C1 [Mevalonic-D, L acid lactone]	1.09 ± 0.038	1.06 ± 0.054
COCC(=O)Nc1c(I)c(C(=O)NCC(O)CO)c(I)c(C(=O)N(C)CC(O)CO)c1I (stereo not drawn) [Iopromide]	0.877 ± 0.064	1.029 ± 0.01
CC1COc2c(N3CCN(C)CC3)c(F)cc3c(=O)c(C(=O)O)cn1c23 (stereo not drawn) [Ofloxacin]	0.978 ± 0.13	0.959 ± 0.062
Cn1cnc([N+](=O)[O-])c1Sc1ncnc2[nH]cnc12 [Azathioprine]	0.93 ± 0.032	0.93 ± 0.045
CC(C)C(=O)Nc1ccc([N+](=O)[O-])c(C(F)(F)F)c1 [Flutamide]	0.997 ± 0.041	0.976 ± 0.036
OCCN1C[C@H](O)[C@@H](O)[C@H](O)[C@H]1CO [Miglitol]	1.066 ± 0.0092	1.06 ± 0.051
O=S(=O)(O)CCS [Mesna]	1.06 ± 0.07	1.02 ± 0.024
CCn1cc(C(=O)O)c(=O)c2cnc(N3CCCC3)nc21 [Piromidic acid]	1.03 ± 0.069	0.941 ± 0.03
CC(C)(C)NC[C@H](O)c1ccc(O)c(CO)c1 [Levalbuterol hydrochloride]	0.965 ± 0.089	1.004 ± 0.0069
CCCCNC(=O)NS(=O)(=O)c1ccc(C)cc1 [Tolbutamide]	1 ± 0.035	0.973 ± 0.063
O=C(O)c1cc(-c2ccc(F)cc2F)ccc1O [Diflunisal]	0.992 ± 0.027	1 ± 0.036
CC(=O)[C@H]1CC[C@H]2[C@@H]3C[C@H](C)C4=CC(=O)CC[C@]4(C)[C@H]3[C@@H](O)C[C@]12C [Medrysone]	1.07 ± 0.026	1.09 ± 0.058
CCOC(=O)OC(C)OC1=C(C(=O)Nc2ccccn2)N(C)S(=O)(=O)c2ccccc21 (stereo not drawn) [Ampiroxicam]	1 ± 0.034	0.994 ± 0.079
CCN1CC(CCN2CCOCC2)C(c2ccccc2)(c2ccccc2)C1=O (stereo not drawn) [Doxapram hydrochloride]	1.036 ± 0.0075	1.04 ± 0.049
